The source of these data is PubChem BioAssay AID2202238 (Ras Initiative Chemistry Research Team, Frederick National …, 2025).

SMILES strings stand for the structures. The campaign covered roughly 2,200 compounds. Fewer than 10 were called active. The list shows a part of the results. The source made no clear call on entries shown without one.

The assay concerns the target GTPase KRas (Homo sapiens) (UniProt P01116). The assay can be described thus: Covalent labelling of cysteine mutants by fragments, read by mass spectrometry (AID 2202238). Set-up: protein at 5 µM with 500 µM competing thiol for 1.5 h. The following applies: KRAS G12D cysteine mutants, disulfide tethering, MALDI-TOF labeling; stronger effect = higher value; H27C mutant labeling; fragment at 500 µM.
UniProt P01116, sequence (P01116 whole entry, looked up, the tested form may be a part): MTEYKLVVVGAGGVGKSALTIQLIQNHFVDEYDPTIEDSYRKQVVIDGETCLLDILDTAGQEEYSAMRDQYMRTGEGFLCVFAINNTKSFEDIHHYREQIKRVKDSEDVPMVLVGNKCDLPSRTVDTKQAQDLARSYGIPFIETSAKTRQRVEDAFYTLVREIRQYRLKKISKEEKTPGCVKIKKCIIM
`CCc1c(C(=O)NCCS)[nH]c(C)c1C(N)=O` displayed a percent labeling of 47.6%.
`O=C(NCCS)c1csc2cc(Cl)cnc12` gave a percent labeling of 34.2%.
In turn, `O=C(NCCS)c1cc(-c2ccncc2)nc2ccccc12` showed a percent labeling of 33.7%.
`O=C(CCS)N1C[C@@H]2Oc3c(F)ccc(F)c3O[C@@H]2C1` registered a percent labeling of 52.7%.
In turn, `N#Cc1cccc(CN2C(=O)CCC2C(=O)NCCS)c1` (stereo not given) yielded a percent labeling of 42.4%.
`O=C(CCS)Nc1ccn(CCN2CCNC2=O)n1` displayed a percent labeling of 34.2%.
In turn, `Cc1ccc(-c2cc(C(=O)NCCS)c3cnn(C(C)C)c3n2)s1` had a percent labeling of 17.7%.
In turn, `Nc1ncnc2c1ncn2C[C@H]1CC[C@@H](C(=O)NCCS)O1` yielded a percent labeling of 53.5%.
To `O=C(NCCS)c1ccc(Oc2ccc(Cl)cc2)c(F)c1` belongs 15.3%.
Regarding `Cc1nc(C2CCCC2)sc1C(=O)NCCS`, the percent labeling worked out at 30.7%.
`Cc1sc(C2(NC(=O)CCS)CCC2)nc1-c1ccccc1F` returned a percent labeling of 29.2%.
In the case of `Cn1cc(CCC(=O)NCCS)cn1`, the percent labeling is 34.8%.
To `O=C(CCS)NCCc1nc2ncccn2n1` belongs 20.6%; to `NC(=O)c1cn(C2CCN(C(=O)CCS)CC2)nn1`, 35.7%; to `O=C(CCS)NCc1ccnc(-n2cncn2)c1`, 33.6%.
Take `O=C(CCS)N1CCN(C(=O)c2n[nH]c3ccccc23)CC1`: the percent labeling came out at 48.8%.
Turning to `O=C(NCCS)c1ccc(-n2ccnc2)cn1`, the percent labeling stood at 45.2%.
For the compound `O=C(CCn1c2ccc(Cl)cc2c2cc(Cl)ccc21)NCCS`, the percent labeling worked out at 16.5%.
For the compound `NC(=O)NC(CC(=O)NCCS)c1cccs1` (stereo not given), the percent labeling turned out to be 23.1%.
Compound `O=C(CCS)N1CCN(C(=O)c2cccc(F)c2)CC1` returned a percent labeling of 47.2%.
To `Cc1cc(C)n(C)c(=O)c1CNC(=O)CCS` belongs 26%.
`Cc1nc(-c2cnn(C)c2)sc1C(=O)NCCS`: the percent labeling came out at 45.8%.
The compound `COc1ccccc1N(Cc1nc(C)cs1)C(=O)CCS` displayed a percent labeling of 42.1%.
To `CN(C)Cc1ccc(CNC(=O)CCS)s1` belongs 46.9%; to `O=C(CCS)N1CCC(c2ncccc2Cl)CC1`, 52%; to `O=C(NCCS)C1CCN(C(=O)c2ccc(-c3ncccn3)cc2)CC1`, 37.9%.
In turn, `COCc1nc(CNC(=O)CCS)c(-c2ccccc2)s1` registered a percent labeling of 37.7%.
`CCc1cccc2c(F)c(C(=O)NCCS)[nH]c12` had a percent labeling of 20.6%.
As to `Cc1c(C(=O)NCCS)cnc2c1c(=O)n(C)c(=O)n2C`, the percent labeling came out at 46.7%.
`O=C(CCS)Nc1cnn(CC(=O)NC2CC2)c1` displayed a percent labeling of 27.4%.
`O=C(CCS)NCC(=O)Nc1ccccc1Br` returned a percent labeling of 40.9%.
Consider `CN1CCN(C2(C(=O)NCCS)CCCC2)CC1`, for which the percent labeling is 46.6%.
Compound `O=C(CCS)Nc1ccc(-c2nnc3n2CCCCC3)cc1` had a percent labeling of 44.5%.
`COc1ccc(OC)c(C2CC2C(=O)NCCS)c1` (stereo not given) displayed a percent labeling of 36.3%.
Next, `O=C(NCCS)C1(Cc2cn[nH]n2)CCCC1`: 35.2%.
With `CC(C)c1cc(C(=O)NCCS)c(C(C)C)[nH]1`, the percent labeling came to 22.7%.
As for `CCn1nccc1C1CCN(C(=O)CCS)CC1`, the percent labeling was 41%.
Next, `O=C1CN(S(=O)(=O)c2cccc(NC(=O)CCS)c2)CCN1`: 47.3%.
Regarding `O=C(NCCS)C(c1ccccc1)n1cnc2ccccc21` (stereo not given), the percent labeling stood at 30.6%.
To `NC(=O)c1ccccc1OCc1cccc(C(=O)NCCS)c1` belongs 34.3%; to `CN(Cc1coc2cc(F)cc(F)c12)C(=O)CCS`, 34.5%.
Regarding `CN1C(=O)CC(C(=O)NCCS)c2ccccc21` (stereo not given), the percent labeling is 30.9%.
With `O=C(CCS)N1CCC(n2cccn2)CC1`, the percent labeling worked out at 40.4%.
`O=C(CCS)N1CCC(c2ccc(F)cc2Cl)CC1` returned a percent labeling of 43.4%.
For `CN(c1cc(C(=O)NCCS)ccn1)C1CCCC1`, the percent labeling worked out at 30.3%.
Take `CCc1ccc(C2COCCN2C(=O)CCS)o1` (stereo not given): the percent labeling was 38.4%.
Consider `O=C(NCCS)c1cccc2ccn(Cc3ccccc3)c12`, for which the percent labeling amounted to 26.5%.
To `COCCn1cc(C(=O)NCCS)c(=O)cc1C` belongs 32.2%; to `COC(=O)c1cnc(CC2CCN(C(=O)CCS)CC2)s1`, 48.9%; to `O=C(CCS)NCc1cnc(-c2ccccc2)[nH]1`, 35.8%.
Next, `CN(C)C(=O)Cc1ccc(S(=O)(=O)N2CCC(C(=O)NCCS)CC2)cc1`: 27.9%; `O=C(CCS)NCc1noc2cc(F)ccc12`: 42.1%.
Turning to `O=C(Cc1cc2cc(Cl)ccc2[nH]1)NCCS`, the percent labeling was found to be 11.4%.
On to `O=C(NCCS)C1CCN(S(=O)(=O)N2CCCCC2)CC1`, for which the percent labeling came out at 33.4%.
As to `CC(C)(C)C(=O)N1CCOC(C(=O)NCCS)C1` (stereo not given), the percent labeling is 28%.
`O=C(CCS)N1CCC(c2n[nH]c(=O)o2)CC1` registered a percent labeling of 32.2%.
To `O=C(NCCS)c1cc(-c2ccn[nH]2)ccc1F` belongs 51.7%; to `O=C(CCc1sccc1Br)NCCS`, 39.7%; to `CC(C)Cc1nnc(NC(=O)CN(C)C(=O)CCS)s1`, 34.9%.
Turning to `COC(=O)C1CC2(CCS(=O)(=O)CC2)CN1C(=O)CCS` (stereo not given), the percent labeling was 33.4%.
For the compound `O=C(CCS)NC1CCCOC1c1ccncc1` (stereo not given), the percent labeling was 29.6%.
The compound `O=C(NCCS)c1cnc(-c2ccoc2)s1` gave a percent labeling of 11.9%.
For `COc1cc(Br)c(CCNC(=O)CCS)cc1OC`, the percent labeling worked out at 45.1%.
As for `O=C(CCS)N1CCn2cc(Br)cc2C1`, the percent labeling is 6.4%.
Next, `O=C(CCS)N1CCC(CN2CCCCC2=O)CC1`: 34.3%; `COc1cc(CNC(=O)CCS)ccc1OC(F)F`: 40.7%; `O=C(NCCS)c1cc(-c2cccc(F)c2)no1`: 16.2%.
In turn, `Cc1c(C(=O)NCCS)ccc2cnc(C3CC3)n12` returned a percent labeling of 0%.
`O=C(NCCS)c1cnccc1Oc1ccccc1` displayed a percent labeling of 45.9%.
`Cc1cc(F)ccc1CC1(C(=O)NCCS)CC1` yielded a percent labeling of 26.7%.
